Test results published in the supplement of paper PMC11417369.
The list shows a part of the results.

test system: PF3D7_0420300 AP2 domain 1 (GST-tagged); experiment: gcPBM binding intensity (ln(normalized median fluorescence intensity)); higher = stronger DNA binding
Outline: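 Binding intensity is defined as the maximum Masliner-normalised natural-log median intensity across replicate spots for either probe orientation. It was measured on an Agilent 4 × 180k array of primer-extended double-stranded 36-bp intergenic genomic probes and negative controls, to which GST-tagged P. falciparum DNA-binding domains made in E. coli were applied for 1 h in 1× PBS with 1% milk, 0.2 mg/ml BSA, 0.5% salmon testes DNA and 0.03% Triton X-100. Detection was by Alexa488 anti-GST antibody and scanning at 488 nm.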

Sequence | gcPBM binding intensity (ln)
TTCAAGCCCTTCTGCTTACACACAGTAATTATTGTG [CACACA_site2952] | 9.58
TATTTTTATTATATGGTGCATATATACATACATATA | 9.19
AAGTGCATATTATTCACACATAATAATTGTATACCT [CACACA_site5965] | 9.34
ATATGATCATAAAACACACACACAAAAAAAAAAAAA [CACACA_site1806] | 9.87
AAAAAAAAAAAACACACACACAATAGTATATAAATC [CACACA_site956] | 10.3
TTTGTGTTTATAAATTGTACAAAGGTGCAAGAAGAA [XGTACX_site2159] | 9.29
AAAAAAAAAAAAAACACACACACACCCATAAATATA [CACACA_site151] | 9.88
TTAAAATATACATAAACACACACAAAACGTTTAAGA [CACACA_site8267] | 9.9
AATTTAAAATATATAGTACACACGTGAACACAAATA [CACACA_site416] | 9.48
TTTTTTTTTTTTTTTTTTTTCACATGTGTGGAAAAA [GTGCAC_negctrl_site352] | 8.45
AGGATATATAAGTATACACACATATTTATATTTATA [CACACA_site6239] | 9.36
TAACAATAACTTTATACACACATAATATATATATAT [CACACA_site3543] | 9.59
TGTATTTATAATAAAACACACATTTTTAATGTGCTC [CACACA_site4908] | 9.12
CATATACTTCTGTGCACACGAATATTTTTCTTCTTC [CACACA_site1407] | 9.46
TGTTGTCCTAATTCTACACACAATGGTTTATTAAAA [CACACA_site2648] | 9.62
TATACTCATATTTTTACACACATATTTTTTCATATA [CACACA_site5412] | 9.76
TTTTAACGTAAAACATTGATGATATAAAAAATAGGA [GTGCAC_negctrl_site540] | 9.17
ATAAAATATATATATATAAAAATAAATACATAAATA [GTGCAC_negctrl_site157] | 9.4
CAAACAAACAGACACACACACACACCCAAAAATGAT [CACACA_site2430] | 10.4

Sequence | gcPBM binding intensity (ln)
TCAATATTAAATTATTGTACATGTATGTATATATAT [XGTACX_site3861] | 9.19
TTTTTTTTTTTTTTTTTACACACTTTATTCAAACAA [CACACA_site9360] | 8.75
TTTATATAAATTTTTTGTACACAAGTAAAAACGCGT [XGTACX_site2459] | 9.02
ACACAAATAAATATAACATATATATTATATTATATT [CACACA_negctrl_site710] | 9.37
CAAATAAAAACAAAACGTACGAATAAATTATTGTTA [XGTACX_site5136] | 9.49
ATATCGTTATTTTTATGTACTAAAATATTTAATTAT [XGTACX_site3516] | 9.37
TATTTGATCTAAAGAGCATGCAAAAACGAACAAGAT [TGCATGCA_site136] | 9.52
CACATATAAATATTAACACACATAATGAATTATATA [CACACA_site2741] | 9.48
ATATATAAAAATTAGGTGCATTAAATTAAAATATAT | 9.28
AGCATATTATTTTAGGTGCACTTGAAATGTGTTAAC | 9.22
TTTAAATAAAATATTACACACTTAGAAAGATATATA [CACACA_site7684] | 9.18
TTTTTTTTTTATTGTACATGCAAAAAATTCCACACA [TGCATGCA_site279] | 8.97
TACACCCACCCACATACACACACATACACATATATA [CACACA_site8503] | 10.2
AAAAAAAAAAATATATTAAAATAAAAAATATTAACA [GTGCAC_negctrl_site13] | 9
CCACTTAAAATAAAAAGTACATACAGGTGTTATACA [XGTACX_site8124] | 9.19
TAATGAGGAAATACAGCACACGTTATTACACTTTTC [CACACA_site5399] | 9.41
AATAATGTTATAAATTGTACGTGTATTATTCATTAC [XGTACX_site894] | 9.38
AAATTGGTTCATCAATGTACATGTAAAATAAATCAA [XGTACX_site4795] | 9.28
TATATTTATCCATACAAGAAAAAAAAAAAAAAAATA [CACACA_negctrl_site1328] | 9.13

Sequence | gcPBM binding intensity (ln)
TTTTTTAATACATATGCATGTTCAAGTACGAAAAAA [TGCATGCA_site641] | 8.8
TACGGGAAAGATAAGAAACACACGGAAAATTAGACG [CACACA_site1661] | 9.88
TACGCAACCAAAAGTTGTACTAATTTTTTTTTTTTG [XGTACX_site7432] | 9.12
ATATATTTTATACATACACACATATAAATATTTTTT [CACACA_site7780] | 9.44
GGAACAAATAATATCACACATATATATATATATATA [CACACA_site5670] | 9.37
TAATAAATATATTGAAGTACTTATAAAAAGCAATAT [XGTACX_site6262] | 9.03
TGTATATAATCGAGTGCACACACAAAAAAAAAGTGA [CACACA_site8417] | 9.76
TTCATGTCCTATTAATGTACTCTACACACATATAAG [XGTACX_site899] | 9.66
AAAAAAAAAAAAAAAACACACACATATATATATATA [CACACA_site8571] | 9.51
ATTTTATATACACTTTGTACTTATTTTATTCTTCTT [XGTACX_site4200] | 9.7
TTTATTTATTTTTGTTGTACACTTGTATATATTATT [XGTACX_site6486] | 9.54
ATATATATATATAATACACACTAAAGTAACATAATA [CACACA_site5580] | 9.76
TTGTAAGAAAGACACACACACACATATAAATATGTA [CACACA_site6516] | 9.92
TATTTAAAATAATGTGCAAAAGAATAAATAAATAAA [TGCATGCA_negctrl_site194] | 9.49
TTCATTTTCATATATTGTACAAAATTTTATAAGGTT [XGTACX_site4522] | 9.15
TATATAAGAACTTTTACACACATGAAAATGTAGATA [CACACA_site7711] | 9.4
TATATATATATATATACACACATACAGATATATATT [CACACA_site4629] | 9.51
ATATACACATATACATGTACAAATATATATACACAT [XGTACX_site2986] | 9.43
CACTAAAAGAAACACACACACACACCCATATATATA [CACACA_site4151] | 10.2
